Measurements published in PubChem BioAssay AID2451 (National Center for Advancing Translational Sciences (NCATS), 2010).
Where “and” joins values, the source holds several entries; their conditions need not be identical. Equal values may be shown once. Among all 290,000 compounds or so, about 2,100 (0.72%) were called active. The inconclusive results got no clear call from the source; some entries with a clear call stand among them for comparison. Calls follow the shape of the dose curve; as a rule, active = well fitted inhibition curve with a large enough effect; inconclusive = small, poorly fitted or top-dose-only effect, or effect the other way; inactive = flat fitted curve, though single readings scatter. Where the call is inconclusive, the potency comes from a doubtful curve fit.
% is scaled to controls: 0 for no effect and ±100 for the full control effect; potency is read from the fitted curve at half-maximal effect; tags tell the direction and shape of the fitted curve.
Also: nearly all actives have a fitted effect of over 55% in size.

These compounds were tested against Fructose-bisphosphate aldolase (Giardia intestinalis (strain ATCC 50803 / WB clone C6)) (UniProt A8B2U2) (assay: qHTS Assay for Inhibitors of Fructose-1,6-bisphosphate Aldolase from Giardia Lamblia). Settings: purified Giardia FBPA; activity, negative = inhibition: at 59.6 µM (top of the series) unless noted.
Sequence of UniProt A8B2U2 (A8B2U2 whole entry, looked up): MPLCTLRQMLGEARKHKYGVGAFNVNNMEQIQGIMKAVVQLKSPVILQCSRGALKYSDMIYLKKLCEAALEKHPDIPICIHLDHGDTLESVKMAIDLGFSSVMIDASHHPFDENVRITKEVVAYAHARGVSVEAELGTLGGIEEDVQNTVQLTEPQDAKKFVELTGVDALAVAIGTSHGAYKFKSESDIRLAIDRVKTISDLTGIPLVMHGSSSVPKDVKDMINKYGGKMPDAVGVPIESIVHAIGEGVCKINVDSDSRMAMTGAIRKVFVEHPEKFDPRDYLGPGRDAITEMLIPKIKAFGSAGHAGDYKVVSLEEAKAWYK
Method in brief: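 Giardia FBPA (40 nM reagent) was preincubated 10 min at RT with compound (up to 57.5 uM final), then substrate plus GAPDH/TPI/NAD/arsenate coupling system with diaphorase/resazurin was added; resorufin fluorescence (525/598 nm) was read after 20 min.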
With `CC(C)c1nc2oc3c(NCCO)ncnc3c2c2c1COC(C)(C)C2` the “activity, negative = inhibition” value was inactive: -2.89%. For `COc1ccc(CNc2nc3c(c(=O)[nH]c(=O)n3C)n2CCCc2ccccc2)cc1`, the “activity, negative = inhibition” value was inactive: 3.11%. In the case of `CCN(CC)CCN(C(=O)c1ccc2ccccc2c1)c1nc2cc3c(cc2s1)OCO3`, the Potency was inconclusive: 31.6 µM [inhibitor, single point]. In the case of `CC(C)(C)OC(=O)NCc1n[nH]c(=S)n1C1CC1`, the Potency was inconclusive: 22.3 µM [inhibitor, partial curve]. For `O=C(C1CCC(CNc2c(N3CCCCC3)c(=O)c2=O)CC1)N1CCc2ccccc2C1` (configuration not stated), the “activity, negative = inhibition” value was inactive: 3.2%. With `CC(=O)c1ccc(NC(=O)c2ccc3nc(-c4ccco4)c(-c4ccco4)nc3c2)cc1` the Potency was inconclusive: 5.61 µM [inhibitor, partial curve]. In the case of `CC(C)N1CC2=C(OC(N)=C(C#N)C2c2cccnc2)/C(=C/c2cccnc2)C1` (configuration not stated), the Potency was inconclusive: 8.89 µM [inhibitor, partial curve]. In the case of `CCOc1ccccc1NC(=S)N1CCN(c2nc(-c3cccc(OC)c3)cs2)CC1`, the “activity, negative = inhibition” value was inactive: 2.13%. `CC(=O)c1ccc(NC(=S)Nc2cccc3ccccc23)cc1` was tested, and the “activity, negative = inhibition” value was inactive: -21.8%. For `COc1ccc(Nc2nc(N)nc(CCl)n2)cc1`, the “activity, negative = inhibition” value was inactive: 0.297%. In the case of `CC1CCCC(C)N1C(=O)COC(=O)c1ccc2c(c1)OCO2` (configuration not stated), the “activity, negative = inhibition” value was inactive: 3.36%. For `CCN(CC(=O)c1c(N)n(C)c(=O)n(C)c1=O)c1cccc2ccccc12`, the Potency was inconclusive: 5.61 µM [inhibitor, full curve]. In the case of `Cc1cccc(OCc2nnc(SCCC(=O)O)n2-c2ccccc2)c1`, the “activity, negative = inhibition” value was inactive: 5.39%. In the case of `Oc1ccc(-c2cn3c(n2)SCC3)cc1O`, the Potency was active: 17.7 µM. With `O=S(=O)(Nc1cccc2ccccc12)c1ccccc1` the Potency was inconclusive: 17.7 µM [inhibitor, partial curve]. `Cn1cc(Br)c(NC(=O)/C=C/C(=O)O)n1` was tested, and the Potency was inconclusive: 17.7 µM [inhibitor, single point]. In the case of `CSc1nsc(/C=C/Nc2ccc(O)cc2C)c1C#N`, the Potency was active: 17.7 µM. `CCc1ccccc1N(C(C)=O)c1nc(CN=C=S)cs1` was tested, and the “activity, negative = inhibition” value was inactive: -1.19%. `COc1cccc(N2C(=O)NC(=O)/C(=C/c3ccc([N+](=O)[O-])s3)C2=O)c1` was tested, and the Potency was inconclusive: 15.8 µM [inhibitor, partial curve]. In the case of `CN(C)NC(=S)Nc1ccc2nc(-c3ccccn3)c(-c3ccccn3)nc2c1`, the Potency was inconclusive: 17.8 µM [inhibitor, partial curve]. With `O=C1C=C(NCc2ccccc2)c2ccccc2C1=O` the Potency was active: 1.26 µM. `C#CCCCO/N=C1/C[C@@H](O)[C@@H](O)[C@@H]2[C@@H]3C(=O)N(C[C@@H]4CCCO4)C(=O)[C@H]3CC[C@@H]12` was tested, and the activity, negative = inhibition was inactive: 0.363% [at 12.9 µM]. `Cc1ccc(NC(=O)CSc2ncnc3ccccc23)cc1S(=O)(=O)N1CCOCC1` was tested, and the “activity, negative = inhibition” value was inactive: 3.08%. With `COc1ccc(CN(CC2CCCO2)S(=O)(=O)c2ccc(-n3cnnn3)c(OC)c2)cc1` (configuration not stated) the “activity, negative = inhibition” value was inactive: -0.131%. With `NNc1nncc2ccccc12` the Potency was active: 12.6 µM and active: 5 µM. In the case of `CCOC(=O)c1sc(NC(=S)NC(=O)c2ccc(OC)cc2)nc1C`, the Potency was inconclusive: 7.94 µM [inhibitor, partial curve]. For `C=CCn1c(-c2ccncc2)n[nH]c1=S`, the Potency was active: 2.51 µM. For `Cc1ccc(C(C)C)c(OCc2n[nH]c(=S)o2)c1`, the “activity, negative = inhibition” value was inactive: -2.57%. `COCCNC(=S)Nc1ccc2nsnc2c1` was tested, and the Potency was inconclusive: 6.29 µM [inhibitor, partial curve]. `O=C(c1ccccc1)C(Nc1ccccn1)c1ccccc1` (configuration not stated) was tested, and the “activity, negative = inhibition” value was inactive: 0.0333%. With `COC(=O)C1=C(O)/C(=C\c2cc(C)n(-c3ccccc3C)c2C)N=C1C` the Potency was active: 7.06 µM. For `CCOC(=O)c1cccc(Nc2ncnc3ccccc23)c1`, the “activity, negative = inhibition” value was inactive: 4.72%. With `Cc1c(-c2ccncc2)oc2ccc(Br)cc2c1=O` the “activity, negative = inhibition” value was inactive: 3.48%. In the case of `O=C(/C=C/c1ccc(O)c(O)c1)OCCc1ccccc1`, the Potency was inconclusive: 17.7 µM [inhibitor, single point] and inconclusive: 15.8 µM [inhibitor, partial curve]. `CCCCN(CCCC)C(=S)N/N=C/c1c(C)[nH]n(-c2ccccc2)c1=O` was tested, and the Potency was inconclusive: 35.4 µM [inhibitor, single point]. `COc1cc(OC)cc(-c2nnc(NC(=O)c3ccc4c(c3)OCCO4)o2)c1` was tested, and the Potency was inconclusive: 7.94 µM [activator, partial curve]. In the case of `CCOc1cc(N2CCOCC2)c(OCC)cc1NC(=O)c1ccccc1C`, the “activity, negative = inhibition” value was inactive: -1.69%. `COCCn1cc(-c2csc(N)n2)c2ccccc21` was tested, and the Potency was inconclusive: 12.6 µM [inhibitor, partial curve]. `Cn1c(SCc2ccccn2)nnc1-c1cnccn1` was tested, and the “activity, negative = inhibition” value was inactive: -7.9%. `C/C(=N\NC(=O)C(C)n1nc(C)c([N+](=O)[O-])c1C)c1ccccc1O` (configuration not stated) was tested, and the Potency was inconclusive: 4.46 µM [inhibitor, full curve]. With `Clc1ccc(CN2CCN(c3ncnc4scc(-c5cccs5)c34)CC2)cc1` the “activity, negative = inhibition” value was inactive: -12.6%. `CN(C(=S)Nc1ccc(Oc2ccccc2)cc1)c1ccc(O)cc1` was tested, and the Potency was active: 1.41 µM. In the case of `c1ccc(-c2nnc(-c3ccccn3)c(-c3ccccn3)n2)nc1`, the Potency was inconclusive: 17.7 µM [inhibitor, single point]. In the case of `Cc1cc(C)c(NC(=S)N(CCN2CCCCC2)Cc2ccco2)c(C)c1`, the Potency was inconclusive: 17.7 µM [inhibitor, single point]. For `Cc1ccc(-c2noc(N=O)c2NO)cc1`, the Potency was inconclusive: 3.54 µM [inhibitor, full curve]. In the case of `COc1cc(C)c(CN2CC=C(c3ccc(F)cc3)CC2)cc1C`, the Potency was inconclusive: 14.1 µM [inhibitor, partial curve]. For `S=c1[nH]nc(-c2cccnc2)n1/N=C/c1ccco1`, the Potency was inconclusive: 17.7 µM [inhibitor, partial curve]. In the case of `O=C(Cc1ccc(S(=O)(=O)N2CCOCC2)s1)Nc1nc2c(s1)CCCC2`, the Potency was active: 15.8 µM. For `COc1cccc(NC(=O)Nc2cccc(C)n2)c1`, the “activity, negative = inhibition” value was inactive: 9.31%. In the case of `O=C(O)c1ccc(Sc2nnc(-c3cccc(Br)c3)o2)c([N+](=O)[O-])c1`, the Potency was inconclusive: 19.9 µM [activator, partial curve]. With `O=C(Cn1nnc(-c2ccccc2F)n1)NCCc1ccccc1` the “activity, negative = inhibition” value was inactive: 2.8%. In the case of `CCNC(=S)NNC(=O)c1csc2c1CCC(C)C2` (configuration not stated), the “activity, negative = inhibition” value was inactive: 10.6%. In the case of `COC(=O)c1ccc2c(=O)n(NC(C)=O)c(=S)[nH]c2c1`, the Potency was inconclusive: 11.2 µM [inhibitor, partial curve]. `CC(=O)NC(c1ccc(C)cc1)c1cc(Cl)c2cccnc2c1O` (configuration not stated) was tested, and the Potency was inconclusive: 25.1 µM [activator, single point]. In the case of `O=c1c2oc3ccccc3c2ncn1Cc1ccc(Cl)cc1`, the “activity, negative = inhibition” value was inactive: -2.65%. `Nc1nnc(-c2ccco2)s1` was tested, and the Potency was active: 6.29 µM. `Cc1ccc(-c2cc(-c3ccc(Cl)cc3)c(C#N)c(N)n2)o1` was tested, and the Potency was inconclusive: 15.8 µM [inhibitor, single point]. For `Cc1ccc(NC(=S)N/C(=N/S(=O)(=O)c2ccccc2)c2ccccc2)cc1`, the Potency was inconclusive: 35.4 µM [inhibitor, single point]. For `COc1cccc(/C=N/Nc2nc(Nc3ccc([N+](=O)[O-])cc3)nc(N3CCCC3)n2)c1O`, the “activity, negative = inhibition” value was inactive: -15.6%. In the case of `O=C(O)c1ccc(-c2sc(Nc3ccccc3)n[n+]2-c2ccc(F)cc2)cc1`, the Potency was inconclusive: 17.8 µM [inhibitor, partial curve]. With `Nc1nc(=S)c2[nH]cnc2[nH]1` the Potency was active: 3.15 µM. In the case of `C=CCNc1nc(-c2ccccn2)nnc1-c1ccccc1`, the Potency was inconclusive: 6.29 µM [inhibitor, full curve]. `O=c1c2cc(O)c(O)cc2oc2cc(O)c(C3OC(CO)C(O)C(O)C3O)c(O)c12` (configuration not stated) was tested, and the Potency was inconclusive: 17.7 µM [inhibitor, partial curve]. `O=C1CC(=C(c2ccccc2)c2ccccc2)C(=O)N1CCCCN1CCN(c2ccccc2)CC1` was tested, and the Potency was inconclusive: 15.8 µM [inhibitor, single point]. For `COc1ccc(NC(=S)NN2CCOCC2)cc1OC`, the Potency was inconclusive: 15.8 µM [inhibitor, single point]. `COc1ccc(OC)c2c(C)cc(N3CCCN(C)CC3)nc12` was tested, and the Potency was inconclusive: 12.6 µM [inhibitor, partial curve]. For `CCOc1cc(NS(=O)(=O)c2ccc(NC(C)=O)cc2)c(OCC)cc1NC(=O)c1cccs1`, the Potency was inconclusive: 15.8 µM [inhibitor, partial curve]. With `CCCCNC(=S)N1CCN(CC)CC1` the Potency was inconclusive: 12.6 µM [inhibitor, partial curve]. With `C/C(=N\OCC(=O)Nc1ccccc1C(=O)O)c1cccs1` the Potency was inconclusive: 15.8 µM [activator, single point]. `COc1ccc(NC(=O)Nc2ccc(OCc3ccccc3)cc2)cn1` was tested, and the “activity, negative = inhibition” value was inactive: -14.1%. In the case of `Clc1ccc(-c2nc3ccncc3[nH]2)cc1`, the “activity, negative = inhibition” value was inactive: -5.3%. For `COC(=O)[C@]12OC[C@]34C([C@@H](O)[C@@H]1O)[C@]1(C)CC(=O)C(O)=C(C)[C@@H]1C[C@H]3OC(=O)[C@H](O)[C@@H]24` (some centres not stated), the “activity, negative = inhibition” value was inactive: 1.32%. `Fc1ccccc1OCCCCN1CCCCC1` was tested, and the Potency was inconclusive: 20 µM [inhibitor, partial curve]. `CC(/C=C1\SC(=S)N(CC(=O)O)C1=O)=C\c1ccccc1` was tested, and the Potency was inconclusive: 19.9 µM [activator, single point]. In the case of `COc1ccccc1CNC(=O)[C@H](C)NC(=O)C1CCN(C(=O)[C@@H](N)CC(C)C)CC1`, the Potency was inconclusive: 10 µM [inhibitor, partial curve]. `COc1ccc(-c2nc(CSCC(=O)NCc3ccc4c(c3)OCO4)c(C)o2)cc1` was tested, and the “activity, negative = inhibition” value was inactive: 2.72%. For `CCc1ccccc1OCCCCN1CCCCC1`, the Potency was inconclusive: 11.2 µM [inhibitor, partial curve].
